The record followed here is the RNAGym collection of RNA variant scans (doi:10.1101/gad.245936.114).

To fix the notation:
B1: tRNA (parent)
chain: CUCUCGGUAGCCAAGUUGGUUUAAGGCGCAAGACUUUAAUUUAUCACUACGAAAUCUUGAGAUCGGGCGUUCGACUCGCCCCCGGGAGAUUUUUUCCUCGAGCAA

Variants at the floor of the assay are shown more often than the library holds them.

The variants in this data set derive from B1. Put plainly: nonsense suppression (GFP-seq) (ratio to wild type); higher = more function; SUP4oc tRNA, yeast GFP reporter sort-seq. In short, it runs like this:
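Sorted GFP/RFP bins of yeast were each Illumina-sequenced with a phred ≥30 cutoff; the cells held a genome-integrated ochre-suppressor tRNA variant from a library with ~3% random mutations, a galactose-driven GFP ochre reporter, and RFP. Culture was in raffinose/galactose medium containing 80 mg/L adenine. Nonsense suppression, termed GFPSEQ, is the median GFP/RFP of the bins weighted by each variant's estimated cell share per bin, relative to the unmutated parent tRNA, for variants reaching ≥100 reads and ≥30 cells.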
Turning to C1U U8A A33C U55C, the nonsense suppression is at most 0.026.
As for U16G A31G, the nonsense suppression was 1.15.
Under G32C C34U stands at most 0.026; under C5A U21A U63C C81G, at most 0.026.
As for G19A C34G, the figure is at most 0.026.
As to A31G G67C G85A, the nonsense suppression is at most 0.026.
As for G18A G25C C83A, the figure is at most 0.026.
As to U8G U22G C27U, the nonsense suppression is at most 0.026.
Under C1U U20A U55A C80G stands at most 0.026.
With G32C C56A A60G C83U G85C, the nonsense suppression is at most 0.026.
As for C1G C12U A89G, the figure is at most 0.026; as for C11U C83U, at most 0.026; as for U2A U4A A87C, at most 0.026.
As for A13G U55C G88U, the figure is at most 0.026.
As for A14U C27U, the figure is at most 0.026; as for C81A C83A, at most 0.026.
With A31G C56G G88A, the nonsense suppression was at most 0.026.
On to U16C A23C C34G G61A, for which the nonsense suppression is at most 0.026.
Under C3U C29U A33G stands at most 0.026.
Under C5A C34G A89U stands at most 0.026; under U16C U21A U22G, 0.861.
Regarding U55A U57A, the nonsense suppression is at most 0.026.
As for A13G G19C G86U, the figure is at most 0.026; as for C34A U63C, at most 0.026.
As to C3A G19U C81A, the nonsense suppression was at most 0.026.
With G61C C68G U76A, the nonsense suppression is at most 0.026.
As for C29G A54U G73U, the figure is at most 0.026; as for C3U C5U G85C, at most 0.026.
As for U2A G66U, the nonsense suppression is at most 0.026.
As for U8A A60G C64G, the figure is at most 0.026; as for G15A U16C G18A G61C G88A, at most 0.026.
For the variant U22G G66U A74G, the nonsense suppression was at most 0.026.
G59A U70G: the nonsense suppression is at most 0.026.
As for U20C C29G, the figure is at most 0.026.
Under U20A C75U A89U stands at most 0.026; under G65C G67C, at most 0.026.
U76A C82U: the nonsense suppression is at most 0.026.
G18A U20A A33G U58A: the nonsense suppression was at most 0.026.
As for A60C G73U C81A, the figure is at most 0.026; as for A54C U71A G73A C77G G86C, at most 0.026; as for U22G C82U, 0.913.
Turning to G59C G69A, the nonsense suppression is at most 0.026.
Under G7A G59A stands at most 0.026; under G7C C11A, at most 0.026; under C3G G73U G86U, at most 0.026.
Under U4C C11A A31G A62G stands at most 0.026.
Consider A14G G26A G66C, for which the nonsense suppression was at most 0.026.
Under U8A C27G G65C stands at most 0.026.
As for C80U C82G G84C, the figure is at most 0.026; as for A13C A60G A62U, at most 0.026.
Under U16G C75A G84U stands at most 0.026; under C1A G88U, at most 0.026.
As for G10U A62G G73C C83A, the nonsense suppression was at most 0.026.
As for G18U C34U, the figure is at most 0.026.
Turning to C1G G65C, the nonsense suppression is at most 0.026.
Under C3U G19C stands at most 0.026; under U58A A60C, 0.0508.
Under A9G G10U C80U A87C stands at most 0.026; under U8C U21G C34G G59C C64U C82U, at most 0.026.
Take A30G G61C C80U G84A: the nonsense suppression was at most 0.026.
On to U70A C82A, for which the nonsense suppression was at most 0.026.
In the case of A30C A54C G61C U63G, the nonsense suppression is at most 0.026.
As for G25C C34U U55A, the figure is at most 0.026.
As to C34G A74U, the nonsense suppression was at most 0.026.
As for G32A U70C, the figure is at most 0.026.
As for G59U U76G C82G, the figure is at most 0.026.
Under U17C G73C stands at most 0.026; under U16A G59C, at most 0.026; under A54C G69A, at most 0.026.
Take C12G A33U: the nonsense suppression was at most 0.026.
As for A9U A33G C79U C83U, the figure is at most 0.026; as for G6C G28A U55C, at most 0.026; as for C1A A24G, at most 0.026.
Under C1A A24U stands at most 0.026; under C5U C11A G66A A89G, at most 0.026; under C3U G10U U20C A33G G86U, at most 0.026.
As for A31G A62C, the figure is at most 0.026; as for A14C U16A G19A, at most 0.026.
In the case of A13U C27U G73U C79A, the nonsense suppression was at most 0.026.
For the variant G28A A31C, the nonsense suppression is at most 0.026.
Regarding C5A A33U G84C, the nonsense suppression is at most 0.026.
Regarding C12A, the nonsense suppression was at most 0.026.
Under A60G G65C A74C stands at most 0.026.
A60U G86C: the nonsense suppression is at most 0.026.
